Assay results from the supplement of paper PMC3334620.
Whole data set: some 33,000 sequences, median “E-score (-0.5 to 0.5)” near -0.012, cut for the highest 2% near 0.29. This is one part of the list.

Each sequence was assayed against T1, Ybr033w (UniProt P38073) (assay: PBM E-score (8-mer binding enrichment) (E-score (-0.5 to 0.5)); higher = stronger / more preferred TF binding; most listed sequences are background and not binding sites). Conditions: protein concentration: 200 nM; construct: GST-full length.
T1 sequence: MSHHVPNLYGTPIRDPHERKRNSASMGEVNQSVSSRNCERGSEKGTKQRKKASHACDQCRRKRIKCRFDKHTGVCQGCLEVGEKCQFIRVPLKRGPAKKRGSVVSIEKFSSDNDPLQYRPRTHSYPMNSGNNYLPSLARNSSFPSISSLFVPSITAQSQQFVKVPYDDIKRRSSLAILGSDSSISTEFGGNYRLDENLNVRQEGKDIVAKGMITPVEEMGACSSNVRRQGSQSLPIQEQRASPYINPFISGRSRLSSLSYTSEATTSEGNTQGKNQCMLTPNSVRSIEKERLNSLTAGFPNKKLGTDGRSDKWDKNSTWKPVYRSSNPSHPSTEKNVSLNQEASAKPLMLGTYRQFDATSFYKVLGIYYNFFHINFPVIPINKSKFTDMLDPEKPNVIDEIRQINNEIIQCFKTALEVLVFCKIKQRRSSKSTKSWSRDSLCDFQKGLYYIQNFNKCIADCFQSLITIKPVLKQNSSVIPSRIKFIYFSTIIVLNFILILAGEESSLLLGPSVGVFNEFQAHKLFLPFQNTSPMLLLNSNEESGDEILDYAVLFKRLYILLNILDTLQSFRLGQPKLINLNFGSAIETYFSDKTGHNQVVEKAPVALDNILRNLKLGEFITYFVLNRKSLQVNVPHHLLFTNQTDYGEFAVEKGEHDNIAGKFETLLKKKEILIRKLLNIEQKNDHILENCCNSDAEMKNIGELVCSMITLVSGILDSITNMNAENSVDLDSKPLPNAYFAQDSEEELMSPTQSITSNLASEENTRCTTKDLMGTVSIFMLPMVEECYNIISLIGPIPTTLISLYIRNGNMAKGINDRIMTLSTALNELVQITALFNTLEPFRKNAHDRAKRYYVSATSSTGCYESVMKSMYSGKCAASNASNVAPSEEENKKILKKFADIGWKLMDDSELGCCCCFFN
Summary of the method: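 Universal all-10-mer Agilent arrays, fresh or stripped once, were converted to double-stranded form by primer extension. GST-tagged yeast transcription factors from PURExpress in vitro transcription/translation, full-length or DNA-binding domain only, were applied at about 100-200 nM and detected with fluorescent anti-GST. After masliner normalisation, the Universal PBM Analysis Suite scored each ungapped eight-base word together with its reverse complement by E-score.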

| Sequence | PBM E-score |
| --- | --- |
| GTATAAAA | 0.289 |
| GCCTCTCA | -0.261 |
| CATCCCGA | -0.0143 |
| GGCTGGGA | -0.245 |
| GGTTTCAC | 0.0871 |
| GTAACTTA | 0.15 |
| TCGTTAGA | 0.0721 |
| ACGAGTGA | -0.12 |
| ACAACATG | 0.124 |
| ATGCGGAG | -0.179 |
| AGTTCTAT | 0.0629 |
| CTGTTGGC | -0.0935 |
| CCGTGAGG | -0.201 |
| CGATACTC | -0.0379 |
| CCCAGGCA | -0.175 |
| AACGGCCG | 0.0909 |
| AACCTCTC | -0.126 |
| AGACGTAC | -0.127 |
| ATAGTACA | 0.214 |
| CGGTGTAG | -0.227 |
| ACTTGCGC | -0.137 |
| CCATTCTC | -0.127 |
| AGCTGCGC | -0.00242 |
| AGGGAAGG | -0.299 |
| TAAATCTA | 0.238 |

| Sequence | PBM E-score |
| --- | --- |
| ACCACTTC | 0.00812 |
| AAGCATCA | -0.068 |
| AACGCAAT | 0.202 |
| TCTCAAGA | -0.0348 |
| AATAGAGC | 0.206 |
| GGCCCGGA | -0.247 |
| AAGAGTAC | 0.0539 |
| CCGCGCCC | -0.275 |
| GTCTTGGA | 0.0685 |
| CGTATGGC | -0.0236 |
| GCTCCCGA | -0.27 |
| CGAGGTCA | -0.0726 |
| CAAAATCA | 0.194 |
| ACGCAAAC | 0.0104 |
| ACCCCAGC | 0.0611 |
| ATTACGAA | 0.197 |
| CCCGACAG | -0.0978 |
| CCCATCAG | -0.301 |
| TATTTTAA | 0.26 |
| CGGCATAG | -0.0538 |
| CCCGTTAG | -0.31 |
| AGGCCGGC | -0.304 |
| ATATGAAT | 0.182 |
| ATGAACTA | 0.303 |
| AGGTGCTA | 0.0479 |

| Sequence | PBM E-score |
| --- | --- |
| GATGGTGC | -0.388 |
| ATGTCTAG | 0.105 |
| CCTCGGTA | -0.241 |
| CCCAGCCA | -0.0683 |
| ATACGTGA | 0.0823 |
| CGCGTTAG | 0.00864 |
| ACCTATGC | -0.0454 |
| ACGTCTTC | -0.214 |
| AAGACCGC | -0.0727 |
| TCCGGAGA | 0.0833 |
| ACCAACTA | 0.228 |
| CCACCTAG | -0.253 |
| CATCATCG | -0.00089 |
| GCTGGGCA | -0.0135 |
| TAGGCAGA | 0.159 |
| AGCGTGAA | -0.0452 |
| AGGTCCTC | -0.0989 |
| ATCTGACC | 0.0609 |
| ATTTACGA | 0.224 |
| GAGTGATC | -0.0135 |
| GAGCGCGA | -0.00516 |
| CACGGAAG | -0.0633 |
| GCTGCTCC | -0.33 |
| AACGTAGC | -0.21 |
| ATGACTTA | 0.179 |

| Sequence | PBM E-score |
| --- | --- |
| CGCTGTAC | -0.195 |
| CGCCGTCA | -0.0829 |
| TCCGCTAA | -0.158 |
| ACCCTTCT | -0.213 |
| ACATGGGC | 0.0373 |
| CTGGATTA | 0.309 |
| TCGCTGCA | -0.178 |
| TTACACAA | 0.277 |
| CTGTAGAC | 0.0148 |
| CGCGCGCG | 0.0564 |
| ATACTCGA | 0.0384 |
| GCTTAGAA | 0.0531 |
| AATCCATC | 0.14 |
| CTGTAGCA | -0.0279 |
| GGCTCGGA | -0.197 |
| CAAGCGAA | -0.0787 |
| ATTTGGGG | -0.032 |
| TCGGCCCA | -0.108 |
| CTGGTTAC | -0.119 |
| ATCTTAAT | 0.196 |
| CAAAGTTA | 0.279 |
| CCTTAGTC | -0.225 |
| AGCAACTA | 0.204 |
| GAGGCGAC | -0.186 |
| AAGGCCGG | -0.077 |

| Sequence | PBM E-score |
| --- | --- |
| GGTAGGGA | -0.144 |
| TCGTTACA | -0.00512 |
| CCCTTAAA | 0.0698 |
| CCCATATC | -0.0327 |
| ATTTCCAG | 0.163 |
| GCTTCTAA | -0.0251 |
| CGCAACAA | 0.0565 |
| AAAACAAC | 0.103 |
| ATTGCTTC | 0.0144 |
| AAAATAAG | 0.207 |
| CACATAGG | 0.0579 |
| CCTCCATC | -0.224 |
| CAGGTTGA | -0.13 |
| GCGCCTCA | -0.158 |
| CGAACGCA | 0.129 |
| AACCGGCA | -0.203 |
| CACTCAAG | -0.128 |
| ACATTTCT | 0.146 |
| AGGGCAAC | -0.106 |
| CCATGCAG | -0.0588 |
| ATCGCGGC | -0.0546 |
| CGGAGTGC | -0.0705 |
| AGCGTTTG | -0.0651 |
| GGGCGGGA | -0.116 |
| AGCAGCAA | -0.0645 |

| Sequence | PBM E-score |
| --- | --- |
| ACAGGGGT | -0.304 |
| AGGATCGC | -0.0037 |
| CGAGTACA | 0.0824 |
| ACGACCGT | -0.264 |
| GCAGGCAC | -0.352 |
| ACCAACAC | -0.0108 |
| CCGTCCAA | 0.00517 |
| GACTCCAC | -0.234 |
| AGCTGCAC | -0.22 |
| ACCCTTAA | -0.0676 |
| ACTACCCT | 0.0229 |
| CTAAGAAA | 0.185 |
| TCGGGCCA | -0.193 |
| AACTCACA | 0.191 |
| CCAACCAC | 0.119 |
| ACTCTTTG | -0.0406 |
| CCCGCTAC | -0.0393 |
| AGAAACAC | 0.198 |
| ACTTACAT | 0.0223 |
| ACCATAAC | 0.0929 |
| GACGTCAC | -0.199 |
| AAAAGGAT | 0.256 |
| CACGTAAA | -0.0948 |
| CCTCTGTC | -0.125 |
| GAGTTCCA | 0.0441 |

| Sequence | PBM E-score |
| --- | --- |
| CTCAGTAC | -0.0532 |
| ACTGGCTA | -0.258 |
| AGCGTGCC | -0.184 |
| CGTTTCTC | 0.00507 |
| CGCCCCAA | -0.118 |
| GCTGTCCC | -0.22 |
| AGGAGTAG | -0.0617 |
| AGATAGGA | 0.00058 |
| ACATCGAA | 0.144 |
| CATAAAAG | 0.0715 |
| CCACCTAC | -0.216 |
| AACTCCAA | 0.169 |
| AGGACCAA | -0.0664 |
| CAACAAGA | 0.214 |
| ATGGATGG | -0.187 |
| CGGCTCGA | 0.118 |
| ATTACCGG | -0.0592 |
| CATCCTGG | 0.131 |
| TCTAGTAA | 0.171 |
| ACAGCCGT | -0.0948 |
| CGTAGGAA | -0.00832 |
| CCATTGGC | -0.144 |
